The other results are listed elsewhere or left out. At the low end of the ranking the order means little. Measured with an extract: partners may take part in the binding.
These sequences were tested against T1, HNF4alpha2 (COS-7 nuclear extract) (UniProt P41235) (assay: protein-binding microarray). Conditions: COS-7 nuclear extract on double-stranded Agilent 4x180k PBM; binding buffer, salt, pH and temperature not given; high values mean tight binding; double strand, one strand shown; sequences stand for … in …GCCTAGGGAGATTAGAGTATCGGTCGA.
T1 sequence: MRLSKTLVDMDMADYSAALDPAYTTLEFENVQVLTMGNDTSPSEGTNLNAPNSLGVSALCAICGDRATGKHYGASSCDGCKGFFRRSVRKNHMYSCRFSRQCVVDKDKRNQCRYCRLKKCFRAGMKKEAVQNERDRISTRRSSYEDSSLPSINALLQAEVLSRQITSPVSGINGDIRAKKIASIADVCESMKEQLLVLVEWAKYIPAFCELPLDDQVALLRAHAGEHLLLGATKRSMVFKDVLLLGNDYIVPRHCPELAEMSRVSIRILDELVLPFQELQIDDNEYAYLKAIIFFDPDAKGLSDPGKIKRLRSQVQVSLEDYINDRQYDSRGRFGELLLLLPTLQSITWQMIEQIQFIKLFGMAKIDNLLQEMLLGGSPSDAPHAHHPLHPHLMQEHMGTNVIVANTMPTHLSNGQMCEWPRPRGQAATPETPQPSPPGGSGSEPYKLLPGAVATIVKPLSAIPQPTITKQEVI

Sequence	binding signal (log2 normalized intensity)
GTGTGCACAAGTCCTCACAATAATGAGAAA	-1.12
GCTTCTGTTCGCAGACCTGCCAAAGTGTAC	1.2
GCTATGCCTTAGCAAACAGACTGGTGGCAT	-0.98
TCCCAGTTGTCTGATGGCTGCTTCACACAA	-1.29
GTGTGTATGAGAGAGAGAGAGAGGTGGGCA	0.00741
TAGCGAGGCGGAAGTAAGGCGGAAGTACTG	-1.14
CTGTGATCTGGATTTTCAGGTTCCCCAGTG	2.15
TAAAGATATGGAACACTTTCAGAGAGATTG	-0.767
GAGCACATTCCTGCACCATAACCCTCAGCT	-1.12
TGGGCTTTAGGTTTGGTGTTTAATTTTCAA	0.532
GAATAAATACATAAAGTCCAAACCCCTATG	1.73
TCCTTTTGACCACAGTTATCTCCCCAGCTT	2.47
GGCGTTGACTGATCCCTCTGGAGGCTCTCT	-0.968
AACTTACGCACATTACTTTGATTGGAAAAA	0.829
ACCCAAGGGATGGCATCACCTTTGGTCAGC	3.28
ATTAATCAAGGCTGCCTGGCAGGGTGGGGT	-0.418
TGCCTGTGTGTTCTGCTATTCATTACAGAT	1.74
ATTGACAAAGACCAGTGCTCTTTCTTCTCT	-0.734
CTTAGGCCTCCCAGAACGTGGCCTTTAATC	2.15
TTACTAAAGTTAGAATGTGCTGGATGTTTC	1.01
ATGGGTCTGGGATGTTGGGAGGAGTGGACT	2.38
CCTTTCAAGGGCTTACAACTCTAAGGGGGA	-1.15
AGGTCTACCAGGAATATTGCCCCCTAATGG	2.98

Sequence	binding signal (log2 normalized intensity)
AACATGGACTTTGTTGTTTGCCTCTGAAAA	2.31
TGACCATCCCAAAGCTTTTTGATTGCTTAT	-1.12
TTGCTCTGCATGGATTAGCCAGCTATGATA	-1.04
CACAAATACTATTCATCCTCCAAAACCCAG	1.51
CAGGATGTTTTCTCTAGCGCTTATCAGATG	0.202
ACCTGAACTTTGCTCTGTGACACAAAGAAG	2.76
AAAAAAAAAAATTACTGACCCTTGCACTGT	4.58
ATTCCTATCGGTCACCATAAAACATTCTAT	-0.638
ACTGCAATAAAGTGGGTTGAAGTTCTCCCT	-0.374
CGGGGTCAGGCCGTGGTGTATGATGACGCC	1.01
AAGAAACTCGTGGCATTTTTGCCCCTGCCC	3.21
CCAACGCCTCCCTCCTTCCGCGGACGTGTT	1.28
CTTCATCTGGAGACAAATGCTTTTGAACAC	1.27
TACCAGGCAGTCGTGATAGTGACCACCTGG	-0.182
TCATCCAAAGACTAATGCATTCCCAGCAAG	-1.11
GTCCCTGGCCCCGGGGCGGGGGCGGGCTGG	-1.01
CTATTCTGTAACACAGTTGCACTCACTAGC	-1.12
CCTGCTTCCAGGCTTGTACCTTGACCTTCT	6.62
CCCAGACCGCCATAACTCAGCGGGAGGCAA	-0.992
ATTCCAGTGTTTCAAAGGAGTGTCTTTCTC	1.43
AGATCAAAGAGAAAGTAAGTGCACAGCCAG	-1.21
CCTCTTTGCGGATAGATATGTTGAAGTGAC	1.74
TGGCTGGCCATGAGTGAGCACTTAACAAAT	-1.02
